Measured values from the supplement of paper PMC4967469.
The IC50 comes from the fitted curve, where viability falls to half of the control; a fit beyond the top or the lowest dose is shown as a bound at that dose. AUC is the area under the same curve over the 256-fold range up to the top dose, as a fraction; the more sensitive the line, the further below 1. Any top dose called inferred was derived from the fitted curves, not read from the paper.

compound: CC1=C(C(=O)Nc2cc3cn[nH]c3cc2F)C(c2ccc(C(F)(F)F)cc2)CC(=O)N1 [GSK429286A]; assay: Viability of human cancer cell lines after 72 h of drug (GDSC screen); conditions: top dose inferred
Protocol: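 Human cancer cell lines in 384-well plates, medium with 10% serum, drug for 72 h over a 256-fold dose range (nine 2-fold or five 4-fold steps up to the top dose). Adherent lines were fixed and stained with the nucleic acid dye Syto60, suspension lines read with resazurin; signal relative to control wells, capped at 0 and 100%. One two-parameter sigmoid per drug and line, fitted in a mixed model over all curves with the slope shared within a line.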

Compared with “MDA-MB-361 (breast, adherent, top dose 20 µM)”, “G-MEL (melanoma, adherent, top dose 20 µM)” is lower in AUC: 0.988 for the first, 0.954 for the second.

Compared with “SU-DHL-10 (B-cell lymphoma, suspension, top dose 20 µM)”, “ETK-1 (biliary tract, adherent, top dose 20 µM)” is higher in AUC: 0.937 for the first, 0.983 for the second.

Going from “SU-DHL-16 (B-cell lymphoma, suspension, top dose 20 µM)” to “NCI-H1048 (small cell lung carcinoma, adherent, top dose 20 µM)”, the AUC rises from 0.986 to 0.989.

Compared with “H3118 (head and neck, adherent, top dose 20 µM)”, “HCC1428 (breast, adherent, top dose 20 µM)” is higher in AUC: 0.956 for the first, 0.985 for the second.

Going from “RCC-JW (kidney, adherent, top dose 20 µM)” to “EoL-1-cell (haematopoietic neoplasm, suspension, top dose 20 µM)”, the AUC rises from 0.916 to 0.95.

First: NCI-H196 (small cell lung carcinoma, adherent, top dose 20 µM)
Second: SU-DHL-4 (B-cell lymphoma, suspension, top dose 20 µM)
The AUC of the first is lower: 0.896 for the first, 0.991 for the second.

First: KON (head and neck, adherent, top dose 20 µM)
Second: BT-474 (breast, adherent, top dose 20 µM)
The AUC of the first is lower: 0.981 for the first, 0.986 for the second.

Going from “Daoy (medulloblastoma, adherent, top dose 20 µM)” to “FTC-133 (thyroid, adherent, top dose 20 µM)”, the AUC rises from 0.971 to 0.985.

Compared with “EW-7 (Ewing sarcoma, semi-adherent, top dose 20 µM)”, C3A (liver, adherent, top dose 20 µM) is higher in AUC: 0.932 for the first, 0.988 for the second.

Going from “SNU-61 (large intestine, adherent, top dose 20 µM)” to “TE-4 (oesophagus, adherent, top dose 20 µM)”, the AUC falls from 0.985 to 0.98.

Compared with “SK-MEL-1 (melanoma, suspension, top dose 20 µM)”, “SNG-M (endometrium, adherent, top dose 20 µM)” is lower in AUC: 0.993 for the first, 0.949 for the second.

Compared with “A3-KAW (B-cell lymphoma, suspension, top dose 20 µM)”, “EW-13 (Ewing sarcoma, suspension, top dose 20 µM)” is lower in AUC: 0.902 for the first, 0.829 for the second.

Compared with “NCI-H82 (small cell lung carcinoma, suspension, top dose 20 µM)”, “LU-65 (large cell lung carcinoma, suspension, top dose 20 µM)” is higher in AUC: 0.927 for the first, 0.968 for the second.

Compared with “QIMR-WIL (acute myeloid leukaemia, suspension, top dose 20 µM)”, “HSC-2 (head and neck, adherent, top dose 20 µM)” is higher in AUC: 0.767 for the first, 0.984 for the second.

First: PSN1 (pancreas, adherent, top dose 20 µM)
Second: CTV-1 (acute myeloid leukaemia, suspension, top dose 20 µM)
The AUC of the first is higher: 0.96 for the first, 0.903 for the second.

First: LU-165 (small cell lung carcinoma, suspension, top dose 20 µM)
Second: KYSE-410 (oesophagus, adherent, top dose 20 µM)
The AUC of the first is higher: 0.962 for the first, 0.961 for the second.

Compared with “MES-SA (uterus, adherent, top dose 20 µM)”, “Calu-3 (lung adenocarcinoma, adherent, top dose 20 µM)” is higher in AUC: 0.97 for the first, 0.983 for the second.

First: OVK-18 (ovary, adherent, top dose 20 µM)
Second: KM-H2 (Hodgkin lymphoma, suspension, top dose 20 µM)
The AUC of the first is higher: 0.985 for the first, 0.984 for the second.

Compared with “DOK (head and neck, adherent, top dose 20 µM)”, “HuO9 (osteosarcoma, adherent, top dose 20 µM)” is lower in AUC: 0.976 for the first, 0.963 for the second.

Going from “SNU-423 (liver, adherent, top dose 20 µM)” to “KMS-11 (myeloma, suspension, top dose 20 µM)”, the AUC rises from 0.741 to 0.979.

First: MHH-PREB-1 (B-cell leukaemia, suspension, top dose 20 µM)
Second: CaR-1 (large intestine, adherent, top dose 20 µM)
The AUC of the first is higher: 0.981 for the first, 0.976 for the second.

Going from “NCI-H1734 (lung adenocarcinoma, adherent, top dose 20 µM)” to “MDA-MB-468 (breast, adherent, top dose 20 µM)”, the AUC rises from 0.967 to 0.981.

First: KU-19-19 (bladder, adherent, top dose 20 µM)
Second: IST-MEL1 (melanoma, adherent, top dose 20 µM)
The AUC of the first is higher: 0.982 for the first, 0.949 for the second.

Compared with PEO1 (ovary, adherent, top dose 20 µM), “NCI-H1155 (large cell lung carcinoma, suspension, top dose 20 µM)” is higher in AUC: 0.972 for the first, 0.987 for the second.

First: WM1552C (melanoma, adherent, top dose 20 µM)
Second: A204 (rhabdomyosarcoma, adherent, top dose 20 µM)
The AUC of the first is higher: 0.948 for the first, 0.912 for the second.

First: ABC-1 (lung adenocarcinoma, adherent, top dose 20 µM)
Second: HCC1395 (breast, adherent, top dose 20 µM)
The AUC of the first is lower: 0.973 for the first, 0.974 for the second.

Compared with “BICR78 (head and neck, adherent, top dose 20 µM)”, “RH-1 (rhabdomyosarcoma, adherent, top dose 20 µM)” is lower in AUC: 0.975 for the first, 0.967 for the second.

Going from “DB (B-cell lymphoma, suspension, top dose 20 µM)” to “FADU (head and neck, adherent, top dose 20 µM)”, the AUC rises from 0.941 to 0.984.

Going from “REH (B-cell leukaemia, suspension, top dose 20 µM)” to “Caov-3 (ovary, adherent, top dose 20 µM)”, the AUC rises from 0.972 to 0.99.

Going from “LC4-1 (lymphoblastic leukaemia, suspension, top dose 20 µM)” to “TGBC24TKB (biliary tract, adherent, top dose 20 µM)”, the AUC rises from 0.932 to 0.978.

“MDA-MB-361 (breast, adherent, top dose 20 µM)” and “G-MEL (melanoma, adherent, top dose 20 µM)” cannot be ordered by IC50: > 20 µM for the first, > 20 µM for the second.

Going from “SU-DHL-10 (B-cell lymphoma, suspension, top dose 20 µM)” to “ETK-1 (biliary tract, adherent, top dose 20 µM)”, the IC50 rises from 16.5 µM to > 20 µM.

“SU-DHL-16 (B-cell lymphoma, suspension, top dose 20 µM)” and “NCI-H1048 (small cell lung carcinoma, adherent, top dose 20 µM)” cannot be ordered by IC50: > 20 µM for the first, > 20 µM for the second.

“H3118 (head and neck, adherent, top dose 20 µM)” and “HCC1428 (breast, adherent, top dose 20 µM)” cannot be ordered by IC50: > 20 µM for the first, > 20 µM for the second.

“RCC-JW (kidney, adherent, top dose 20 µM)” and “EoL-1-cell (haematopoietic neoplasm, suspension, top dose 20 µM)” cannot be ordered by IC50: > 20 µM for the first, > 20 µM for the second.

“NCI-H196 (small cell lung carcinoma, adherent, top dose 20 µM)” and “SU-DHL-4 (B-cell lymphoma, suspension, top dose 20 µM)” cannot be ordered by IC50: > 20 µM for the first, > 20 µM for the second.

“KON (head and neck, adherent, top dose 20 µM)” and “BT-474 (breast, adherent, top dose 20 µM)” cannot be ordered by IC50: > 20 µM for the first, > 20 µM for the second.

“Daoy (medulloblastoma, adherent, top dose 20 µM)” and “FTC-133 (thyroid, adherent, top dose 20 µM)” cannot be ordered by IC50: > 20 µM for the first, > 20 µM for the second.

“EW-7 (Ewing sarcoma, semi-adherent, top dose 20 µM)” and C3A (liver, adherent, top dose 20 µM) cannot be ordered by IC50: > 20 µM for the first, > 20 µM for the second.

“SNU-61 (large intestine, adherent, top dose 20 µM)” and “TE-4 (oesophagus, adherent, top dose 20 µM)” cannot be ordered by IC50: > 20 µM for the first, > 20 µM for the second.

“SK-MEL-1 (melanoma, suspension, top dose 20 µM)” and “SNG-M (endometrium, adherent, top dose 20 µM)” cannot be ordered by IC50: > 20 µM for the first, > 20 µM for the second.

“A3-KAW (B-cell lymphoma, suspension, top dose 20 µM)” and “EW-13 (Ewing sarcoma, suspension, top dose 20 µM)” are within 1.5-fold of each other in IC50: 16.6 µM for the first, 14.3 µM for the second.

“NCI-H82 (small cell lung carcinoma, suspension, top dose 20 µM)” and “LU-65 (large cell lung carcinoma, suspension, top dose 20 µM)” cannot be ordered by IC50: > 20 µM for the first, > 20 µM for the second.

First: QIMR-WIL (acute myeloid leukaemia, suspension, top dose 20 µM)
Second: HSC-2 (head and neck, adherent, top dose 20 µM)
The IC50 of the first is lower: 7.22 µM for the first, > 20 µM for the second.

Compared with “PSN1 (pancreas, adherent, top dose 20 µM)”, “CTV-1 (acute myeloid leukaemia, suspension, top dose 20 µM)” is lower in IC50: > 20 µM for the first, 17.1 µM for the second.

“LU-165 (small cell lung carcinoma, suspension, top dose 20 µM)” and “KYSE-410 (oesophagus, adherent, top dose 20 µM)” cannot be ordered by IC50: > 20 µM for the first, > 20 µM for the second.

“MES-SA (uterus, adherent, top dose 20 µM)” and “Calu-3 (lung adenocarcinoma, adherent, top dose 20 µM)” cannot be ordered by IC50: > 20 µM for the first, > 20 µM for the second.

“OVK-18 (ovary, adherent, top dose 20 µM)” and “KM-H2 (Hodgkin lymphoma, suspension, top dose 20 µM)” cannot be ordered by IC50: > 20 µM for the first, > 20 µM for the second.

“DOK (head and neck, adherent, top dose 20 µM)” and “HuO9 (osteosarcoma, adherent, top dose 20 µM)” cannot be ordered by IC50: > 20 µM for the first, > 20 µM for the second.

Compared with “SNU-423 (liver, adherent, top dose 20 µM)”, “KMS-11 (myeloma, suspension, top dose 20 µM)” is higher in IC50: 7.01 µM for the first, > 20 µM for the second.

“MHH-PREB-1 (B-cell leukaemia, suspension, top dose 20 µM)” and “CaR-1 (large intestine, adherent, top dose 20 µM)” cannot be ordered by IC50: > 20 µM for the first, > 20 µM for the second.

“NCI-H1734 (lung adenocarcinoma, adherent, top dose 20 µM)” and “MDA-MB-468 (breast, adherent, top dose 20 µM)” cannot be ordered by IC50: > 20 µM for the first, > 20 µM for the second.

“KU-19-19 (bladder, adherent, top dose 20 µM)” and “IST-MEL1 (melanoma, adherent, top dose 20 µM)” cannot be ordered by IC50: > 20 µM for the first, > 20 µM for the second.

PEO1 (ovary, adherent, top dose 20 µM) and “NCI-H1155 (large cell lung carcinoma, suspension, top dose 20 µM)” cannot be ordered by IC50: > 20 µM for the first, > 20 µM for the second.

“WM1552C (melanoma, adherent, top dose 20 µM)” and “A204 (rhabdomyosarcoma, adherent, top dose 20 µM)” cannot be ordered by IC50: > 20 µM for the first, > 20 µM for the second.

“ABC-1 (lung adenocarcinoma, adherent, top dose 20 µM)” and “HCC1395 (breast, adherent, top dose 20 µM)” cannot be ordered by IC50: > 20 µM for the first, > 20 µM for the second.

“BICR78 (head and neck, adherent, top dose 20 µM)” and “RH-1 (rhabdomyosarcoma, adherent, top dose 20 µM)” cannot be ordered by IC50: > 20 µM for the first, > 20 µM for the second.

“DB (B-cell lymphoma, suspension, top dose 20 µM)” and “FADU (head and neck, adherent, top dose 20 µM)” cannot be ordered by IC50: > 20 µM for the first, > 20 µM for the second.

“REH (B-cell leukaemia, suspension, top dose 20 µM)” and “Caov-3 (ovary, adherent, top dose 20 µM)” cannot be ordered by IC50: > 20 µM for the first, > 20 µM for the second.

“LC4-1 (lymphoblastic leukaemia, suspension, top dose 20 µM)” and “TGBC24TKB (biliary tract, adherent, top dose 20 µM)” cannot be ordered by IC50: > 20 µM for the first, > 20 µM for the second.
